Among the data in article PMC8548262 are binding values, retold here.

Amino acid sequences for entries named in this document (tags omitted).
UniProt O15550: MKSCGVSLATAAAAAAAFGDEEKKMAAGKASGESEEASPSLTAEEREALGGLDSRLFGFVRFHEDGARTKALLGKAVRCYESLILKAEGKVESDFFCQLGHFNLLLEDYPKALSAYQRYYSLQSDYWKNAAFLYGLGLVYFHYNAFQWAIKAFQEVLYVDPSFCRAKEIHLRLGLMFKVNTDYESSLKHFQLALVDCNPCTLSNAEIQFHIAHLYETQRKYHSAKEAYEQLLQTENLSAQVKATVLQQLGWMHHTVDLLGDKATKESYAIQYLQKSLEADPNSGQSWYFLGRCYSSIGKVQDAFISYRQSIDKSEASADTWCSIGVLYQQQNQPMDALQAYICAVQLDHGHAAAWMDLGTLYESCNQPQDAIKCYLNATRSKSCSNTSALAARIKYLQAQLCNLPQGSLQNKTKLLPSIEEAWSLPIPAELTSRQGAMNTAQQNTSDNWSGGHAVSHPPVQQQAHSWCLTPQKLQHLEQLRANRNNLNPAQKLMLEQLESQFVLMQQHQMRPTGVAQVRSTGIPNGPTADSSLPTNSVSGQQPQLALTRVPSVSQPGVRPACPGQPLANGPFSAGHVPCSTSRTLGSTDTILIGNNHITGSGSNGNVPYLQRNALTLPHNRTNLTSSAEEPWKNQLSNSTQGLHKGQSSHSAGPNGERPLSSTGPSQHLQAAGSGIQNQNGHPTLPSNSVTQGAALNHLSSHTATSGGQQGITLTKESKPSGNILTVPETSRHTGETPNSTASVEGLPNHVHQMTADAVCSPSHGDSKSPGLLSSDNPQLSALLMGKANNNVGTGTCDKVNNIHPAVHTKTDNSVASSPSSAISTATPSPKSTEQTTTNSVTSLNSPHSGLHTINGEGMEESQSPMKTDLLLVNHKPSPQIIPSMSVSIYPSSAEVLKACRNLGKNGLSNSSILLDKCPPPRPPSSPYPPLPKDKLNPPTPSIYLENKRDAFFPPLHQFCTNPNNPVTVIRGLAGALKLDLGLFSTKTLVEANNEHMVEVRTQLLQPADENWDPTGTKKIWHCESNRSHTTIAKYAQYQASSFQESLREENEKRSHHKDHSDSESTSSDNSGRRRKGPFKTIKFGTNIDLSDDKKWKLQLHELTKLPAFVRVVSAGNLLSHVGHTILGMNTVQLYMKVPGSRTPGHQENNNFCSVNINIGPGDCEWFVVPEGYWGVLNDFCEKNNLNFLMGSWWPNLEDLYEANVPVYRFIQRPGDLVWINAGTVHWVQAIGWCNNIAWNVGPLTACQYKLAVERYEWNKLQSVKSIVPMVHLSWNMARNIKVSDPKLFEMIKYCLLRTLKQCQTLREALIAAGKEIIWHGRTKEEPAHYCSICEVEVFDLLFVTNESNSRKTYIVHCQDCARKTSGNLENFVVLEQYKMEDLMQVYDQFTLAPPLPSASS
UniProt Q86XN7: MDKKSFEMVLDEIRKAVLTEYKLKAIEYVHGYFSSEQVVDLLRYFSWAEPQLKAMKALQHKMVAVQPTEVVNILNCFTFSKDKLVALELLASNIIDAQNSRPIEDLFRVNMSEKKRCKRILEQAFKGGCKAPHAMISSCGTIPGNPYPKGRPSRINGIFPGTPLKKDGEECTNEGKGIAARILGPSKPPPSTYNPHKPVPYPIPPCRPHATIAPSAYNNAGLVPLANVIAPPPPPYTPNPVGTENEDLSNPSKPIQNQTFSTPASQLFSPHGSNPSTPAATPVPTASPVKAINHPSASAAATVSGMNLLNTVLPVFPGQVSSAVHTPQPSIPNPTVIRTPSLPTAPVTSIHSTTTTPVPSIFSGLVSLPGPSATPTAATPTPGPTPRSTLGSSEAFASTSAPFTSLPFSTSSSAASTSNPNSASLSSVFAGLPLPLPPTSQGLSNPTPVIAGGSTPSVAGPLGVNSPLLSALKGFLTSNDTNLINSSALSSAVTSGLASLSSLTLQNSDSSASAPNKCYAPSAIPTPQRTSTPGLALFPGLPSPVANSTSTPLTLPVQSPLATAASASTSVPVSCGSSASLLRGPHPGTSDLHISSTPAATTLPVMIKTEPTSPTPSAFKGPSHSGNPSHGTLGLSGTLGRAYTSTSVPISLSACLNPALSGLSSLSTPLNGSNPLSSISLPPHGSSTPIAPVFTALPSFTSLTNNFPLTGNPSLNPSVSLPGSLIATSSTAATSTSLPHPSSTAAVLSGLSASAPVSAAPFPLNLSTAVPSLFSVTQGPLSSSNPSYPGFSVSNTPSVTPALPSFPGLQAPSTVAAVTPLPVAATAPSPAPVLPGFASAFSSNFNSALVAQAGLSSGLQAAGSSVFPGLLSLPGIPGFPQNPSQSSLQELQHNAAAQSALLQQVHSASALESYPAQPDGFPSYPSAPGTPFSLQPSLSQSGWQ
UniProt Q15291: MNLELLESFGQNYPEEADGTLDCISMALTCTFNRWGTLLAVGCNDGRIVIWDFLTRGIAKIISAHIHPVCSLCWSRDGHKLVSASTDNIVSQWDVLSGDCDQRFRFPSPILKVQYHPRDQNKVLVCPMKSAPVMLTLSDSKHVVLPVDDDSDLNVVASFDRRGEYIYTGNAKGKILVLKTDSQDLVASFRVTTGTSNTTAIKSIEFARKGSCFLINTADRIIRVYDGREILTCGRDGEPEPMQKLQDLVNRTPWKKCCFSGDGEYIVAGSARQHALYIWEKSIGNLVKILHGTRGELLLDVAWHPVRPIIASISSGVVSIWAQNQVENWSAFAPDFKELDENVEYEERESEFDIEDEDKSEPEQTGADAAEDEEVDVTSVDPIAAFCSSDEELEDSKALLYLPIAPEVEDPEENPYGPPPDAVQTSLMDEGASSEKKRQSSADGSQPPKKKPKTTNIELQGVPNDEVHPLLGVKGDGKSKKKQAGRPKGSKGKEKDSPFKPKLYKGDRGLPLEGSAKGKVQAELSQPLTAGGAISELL

These are yes or no findings as the source states them, for the method shown. In cells and extracts the contact can be indirect. Some results given as binding are weak or reduced against the parent protein; the word gives no strength. For some assays here: Where a sequence is shown, tags or fusion partners need not be part of it.

For assay [1], the target named is FLAG-UTX (UniProt O15550). Put plainly: co-sedimentation; combined eluates of two large scale FLAG affinity purifications of FLAG-UTX layered over a 20-50% glycerol gradient, 48 h at 35,000 rpm, 4°C; 33 fractions analysed by Western blot. For orientation: Immunoblotting shows a protein as a band on a membrane.
The target in assay [2] is FLAG-UTX (UniProt O15550). Put plainly: co-IP; FLAG IP from nuclear extracts of FLAG-UTX HEK293 cells, Western blot; cells with a FLAG-tag expressing plasmid as IP control.
Assay [3] has as its target T1, FLAG-mTET2-N500 (mouse) (UniProt Q4JK59).
T1 sequence: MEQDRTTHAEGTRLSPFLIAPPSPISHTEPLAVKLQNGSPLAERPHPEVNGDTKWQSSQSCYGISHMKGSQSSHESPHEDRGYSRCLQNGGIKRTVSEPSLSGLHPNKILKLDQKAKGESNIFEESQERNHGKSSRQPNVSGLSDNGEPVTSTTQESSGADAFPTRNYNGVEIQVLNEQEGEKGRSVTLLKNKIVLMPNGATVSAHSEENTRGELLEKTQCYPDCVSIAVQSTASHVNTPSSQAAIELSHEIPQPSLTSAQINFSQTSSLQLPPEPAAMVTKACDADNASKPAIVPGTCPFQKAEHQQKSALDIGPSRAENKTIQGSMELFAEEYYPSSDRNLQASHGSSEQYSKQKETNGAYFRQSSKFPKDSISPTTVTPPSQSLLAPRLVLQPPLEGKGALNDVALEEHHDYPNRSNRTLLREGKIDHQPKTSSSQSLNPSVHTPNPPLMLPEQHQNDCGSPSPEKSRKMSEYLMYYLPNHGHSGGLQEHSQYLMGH
Put plainly: co-IP; HEK293 cells (for TET2 DSBH2 also PROSER1 KO cells) transiently transfected with FLAG-tagged mouse or human TET2 constructs; FLAG IP (FLAG magnetic beads) from total cell lysates, Western blot for endogenous PROSER1 and OGT.

Assay [4] concerns the target FLAG-mTET2-FL (mouse) (UniProt Q4JK59). The description is as above.
Assay [5] deals with T2, FLAG-mTET2-N1041 (mouse) (UniProt Q4JK59).
T2 sequence: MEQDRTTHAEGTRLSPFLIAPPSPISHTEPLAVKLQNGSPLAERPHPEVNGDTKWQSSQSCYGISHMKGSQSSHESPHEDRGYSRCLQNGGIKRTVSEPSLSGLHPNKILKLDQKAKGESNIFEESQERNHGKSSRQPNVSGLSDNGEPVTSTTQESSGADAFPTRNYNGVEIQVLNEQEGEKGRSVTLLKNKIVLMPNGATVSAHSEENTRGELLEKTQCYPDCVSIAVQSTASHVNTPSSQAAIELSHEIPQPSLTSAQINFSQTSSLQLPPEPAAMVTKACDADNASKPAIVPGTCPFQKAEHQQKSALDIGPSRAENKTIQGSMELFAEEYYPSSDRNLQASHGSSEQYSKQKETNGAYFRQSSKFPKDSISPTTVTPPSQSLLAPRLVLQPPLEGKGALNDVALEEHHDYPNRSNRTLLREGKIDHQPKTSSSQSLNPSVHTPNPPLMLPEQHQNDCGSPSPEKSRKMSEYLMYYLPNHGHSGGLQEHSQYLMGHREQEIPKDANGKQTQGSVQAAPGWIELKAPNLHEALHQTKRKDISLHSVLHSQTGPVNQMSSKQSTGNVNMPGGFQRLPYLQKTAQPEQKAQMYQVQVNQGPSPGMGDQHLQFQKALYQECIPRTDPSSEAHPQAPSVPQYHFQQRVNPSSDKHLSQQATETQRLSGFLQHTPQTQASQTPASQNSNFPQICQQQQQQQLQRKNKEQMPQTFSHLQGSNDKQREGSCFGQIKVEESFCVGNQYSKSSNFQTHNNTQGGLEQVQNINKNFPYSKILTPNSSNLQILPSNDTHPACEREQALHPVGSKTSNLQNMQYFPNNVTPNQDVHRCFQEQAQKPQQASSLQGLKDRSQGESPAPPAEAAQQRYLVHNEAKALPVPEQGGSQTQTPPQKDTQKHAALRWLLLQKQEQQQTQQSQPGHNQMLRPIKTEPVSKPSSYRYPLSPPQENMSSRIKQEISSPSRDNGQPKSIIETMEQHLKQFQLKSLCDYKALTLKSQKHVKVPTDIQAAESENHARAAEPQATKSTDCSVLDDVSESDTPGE
Described as above.

In assay [6] the target is FLAG-HA-NeonGreen-PROSER1 (human (endogenous in HEK293)) (UniProt Q86XN7). Kind of assay: co-IP; FHNG-PROSER1 knock-in HEK293 cells transiently transfected with FLAG-tagged mouse TET2 constructs; HA IP from total cell lysates, FLAG Western blot.
Assay [7] concerns the target FLAG-UTX (UniProt O15550). Put plainly: co-IP; FLAG IP from nuclear extracts of FLAG-UTX HEK293 cells, Western blot; cells with a FLAG-tag expressing plasmid as IP control. The source holds these as a separate data set.
For assay [8], the target named is FLAG-HA-NeonGreen-PROSER1 (human (endogenous in HEK293)) (UniProt Q86XN7). Put plainly: co-IP; FLAG IP from nuclear extracts of FHNG-PROSER1 knock-in HEK293 cells, Western blot; wild-type HEK293 cells as IP control.
Assay [9] has as its target FLAG-PROSER1 (UniProt Q86XN7). Put plainly: co-IP; FLAG IP from nuclear extracts of FLAG-PROSER1 HEK293 cells, Western blot; cells with a FLAG-tag expressing plasmid as IP control.
In assay [10] the target is TET2 (human (endogenous in HEK293)) (UniProt Q6N021). Put plainly: co-IP; IP of endogenous TET2 (TET2 antibody, Dynabeads Protein G) from nuclear extracts of WT and PROSER1 KO HEK293 cells, Western blot.

Take RBBP5 (from UniProt Q15291 1-538): the binding result in assay [1] and in assay [2] was “binds” in each case.
As to PROSER1 (from UniProt Q86XN7 1-944), the binding entry in assay [3] is “no binding”; in assay [4], “binds”; in [5] it was “no binding”.

B1: FLAG-mTET2-N500 (domain or fragment, UniProt Q4JK59 1-500)
chain: MEQDRTTHAEGTRLSPFLIAPPSPISHTEPLAVKLQNGSPLAERPHPEVNGDTKWQSSQSCYGISHMKGSQSSHESPHEDRGYSRCLQNGGIKRTVSEPSLSGLHPNKILKLDQKAKGESNIFEESQERNHGKSSRQPNVSGLSDNGEPVTSTTQESSGADAFPTRNYNGVEIQVLNEQEGEKGRSVTLLKNKIVLMPNGATVSAHSEENTRGELLEKTQCYPDCVSIAVQSTASHVNTPSSQAAIELSHEIPQPSLTSAQINFSQTSSLQLPPEPAAMVTKACDADNASKPAIVPGTCPFQKAEHQQKSALDIGPSRAENKTIQGSMELFAEEYYPSSDRNLQASHGSSEQYSKQKETNGAYFRQSSKFPKDSISPTTVTPPSQSLLAPRLVLQPPLEGKGALNDVALEEHHDYPNRSNRTLLREGKIDHQPKTSSSQSLNPSVHTPNPPLMLPEQHQNDCGSPSPEKSRKMSEYLMYYLPNHGHSGGLQEHSQYLMGH
For B1, the binding result in [6] is reported as “no binding”.

B2: FLAG-mTET2-N1041 (domain or fragment, UniProt Q4JK59 1-1041)
chain: MEQDRTTHAEGTRLSPFLIAPPSPISHTEPLAVKLQNGSPLAERPHPEVNGDTKWQSSQSCYGISHMKGSQSSHESPHEDRGYSRCLQNGGIKRTVSEPSLSGLHPNKILKLDQKAKGESNIFEESQERNHGKSSRQPNVSGLSDNGEPVTSTTQESSGADAFPTRNYNGVEIQVLNEQEGEKGRSVTLLKNKIVLMPNGATVSAHSEENTRGELLEKTQCYPDCVSIAVQSTASHVNTPSSQAAIELSHEIPQPSLTSAQINFSQTSSLQLPPEPAAMVTKACDADNASKPAIVPGTCPFQKAEHQQKSALDIGPSRAENKTIQGSMELFAEEYYPSSDRNLQASHGSSEQYSKQKETNGAYFRQSSKFPKDSISPTTVTPPSQSLLAPRLVLQPPLEGKGALNDVALEEHHDYPNRSNRTLLREGKIDHQPKTSSSQSLNPSVHTPNPPLMLPEQHQNDCGSPSPEKSRKMSEYLMYYLPNHGHSGGLQEHSQYLMGHREQEIPKDANGKQTQGSVQAAPGWIELKAPNLHEALHQTKRKDISLHSVLHSQTGPVNQMSSKQSTGNVNMPGGFQRLPYLQKTAQPEQKAQMYQVQVNQGPSPGMGDQHLQFQKALYQECIPRTDPSSEAHPQAPSVPQYHFQQRVNPSSDKHLSQQATETQRLSGFLQHTPQTQASQTPASQNSNFPQICQQQQQQQLQRKNKEQMPQTFSHLQGSNDKQREGSCFGQIKVEESFCVGNQYSKSSNFQTHNNTQGGLEQVQNINKNFPYSKILTPNSSNLQILPSNDTHPACEREQALHPVGSKTSNLQNMQYFPNNVTPNQDVHRCFQEQAQKPQQASSLQGLKDRSQGESPAPPAEAAQQRYLVHNEAKALPVPEQGGSQTQTPPQKDTQKHAALRWLLLQKQEQQQTQQSQPGHNQMLRPIKTEPVSKPSSYRYPLSPPQENMSSRIKQEISSPSRDNGQPKSIIETMEQHLKQFQLKSLCDYKALTLKSQKHVKVPTDIQAAESENHARAAEPQATKSTDCSVLDDVSESDTPGE
As to B2, the binding entry in [6] is “no binding”.

B3: OGT (enzyme, UniProt O15294 1-1046)
chain: MASSVGNVADSTEPTKRMLSFQGLAELAHREYQAGDFEAAERHCMQLWRQEPDNTGVLLLLSSIHFQCRRLDRSAHFSTLAIKQNPLLAEAYSNLGNVYKERGQLQEAIEHYRHALRLKPDFIDGYINLAAALVAAGDMEGAVQAYVSALQYNPDLYCVRSDLGNLLKALGRLEEAKACYLKAIETQPNFAVAWSNLGCVFNAQGEIWLAIHHFEKAVTLDPNFLDAYINLGNVLKEARIFDRAVAAYLRALSLSPNHAVVHGNLACVYYEQGLIDLAIDTYRRAIELQPHFPDAYCNLANALKEKGSVAEAEDCYNTALRLCPTHADSLNNLANIKREQGNIEEAVRLYRKALEVFPEFAAAHSNLASVLQQQGKLQEALMHYKEAIRISPTFADAYSNMGNTLKEMQDVQGALQCYTRAIQINPAFADAHSNLASIHKDSGNIPEAIASYRTALKLKPDFPDAYCNLAHCLQIVCDWTDYDERMKKLVSIVADQLEKNRLPSVHPHHSMLYPLSHGFRKAIAERHGNLCLDKINVLHKPPYEHPKDLKLSDGRLRVGYVSSDFGNHPTSHLMQSIPGMHNPDKFEVFCYALSPDDGTNFRVKVMAEANHFIDLSQIPCNGKAADRIHQDGIHILVNMNGYTKGARNELFALRPAPIQAMWLGYPGTSGALFMDYIITDQETSPAEVAEQYSEKLAYMPHTFFIGDHANMFPHLKKKAVIDFKSNGHIYDNRIVLNGIDLKAFLDSLPDVKIVKMKCPDGGDNADSSNTALNMPVIPMNTIAEAVIEMINRGQIQITINGFSISNGLATTQINNKAATGEEVPRTIIVTTRSQYGLPEDAIVYCNFNQLYKIDPSTLQMWANILKRVPNSVLWLLRFPAVGEPNIQQYAQNMGLPQNRIIFSPVAPKEEHVRRGQLADVCLDTPLCNGHTTGMDVLWAGTPMVTMPGETLASRVAASQLTCLGCLELIAKNRQEYEDIAVKLGTDLEYLKKVRGKVWKQRISSPLFNTKQYTMELERLYLQMWEHYAAGNKPDHMIKPVEVTESA
Take B3: the binding entry in [7] is “binds”; in assay [8], “binds”; in assay [9], “binds”; in assay [10], “binds”; in assay [3], “no binding”; in assay [4], “binds”. For the same molecule, the binding entry in [5] is “no binding”.
